The chains are these.
B1: TPR 5TU (parent)
chain: GGAUCUUCUCGAUCUAACAAAAAAGACAAAUCUGCCACAAAGCUUGAGAGCAUCUUCGGAUGCAGAGGCGGCAGCCUUCGGUGGCGCGAUAGCGCCAACGUUCUCAACUAUGACACGCAAAACGCGUGCUCCGUUGAAUGGAGUUUAUCAUG

This sample is rich in variants without activity.

The series covers variants of B1. The experiment in a line: polymerase ribozyme fitness, log enrichment relative to wild type (log ratio); higher = more active; in vitro selection for triplet polymerase activity. In outline:
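Each subunit of a heterodimeric triplet polymerase ribozyme was represented by a PCR-built, transcribed mutant library that underwent triplicate single-round in vitro selection with frozen incubation at −7 °C. Extended constructs were recovered by gel excision, streptavidin-bead capture and RT-PCR, and Illumina sequencing of input and output libraries kept genotypes with ≥10 input reads and ≥1 read per output. Fitness is the logarithm of genotype enrichment relative to wild-type enrichment, from inverse-variance-weighted replicate averages, with a logarithm base of 2.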
For the variant GGAUCUUCUCGAUCUAACAAAAAAGACAAAUCUGCCACAAAGCUUGAGAGCAUCUUCGGAUGCAGAGGCGGCAGCCUUCGGUGGCGCGAUAGCCCCAACGUUCUCAACUAUGACACGCAAAACUCGUGCUCCGUUGAAUGGAUUUUAUCAUG, the “polymerase ribozyme fitness (log ratio)” value was -3.6.

Regarding GGAUCUUCUCGAUCUAACAAAAAAGACAAAUCUGCCACAAAGCUUGAGAGCAUCUUCGGAUGCAGAGGCGGCAGCCUUCGGUGGCGCGAUAGCCCCAACGUUCUCAACUAUGACACGCAAACCGCGUGCUCCGUUGAAUGGAGUUUAUCAUG, the “polymerase ribozyme fitness (log ratio)” value was -0.988. For GGAUCUUCUCGAUCUAACAAAAAAGACAAAUCUGCCACAAAGCUUGAGAGCAUCUUCGGAUGCAGAGGCGGCAGCCUUCGGUGGCGCGAUAGCCCCAACCUUCUCAACUAUGACACGCAAAACGCGUGCUUCCUUGAAUGGAGUUUAUGAUG the value was at most -4.2; for GGAUCUUCUCGAUCUAACAAAAAAGACAAAUCUGCCACAAAGCUUGAGAGCAUCUUCGGAUGCAGAGGCGGCAGCCUUCGGUGGCGCGAUAGCACCAACGUUCUCAACUAUGACACGCAAAACGCGUGCUCGGUUGAGUGGAGUUUAUCAUG, at most -4.2. Next, GGAUCUUCUCGAUCUAACAAAAAAGACAAAUCUGCCACAAAGCUUGAGAGCAUCUUCGGAUGCAGAGGCGGCAGCCUUCGGUGGCGCGAUAGCCCCAACGUUCUCGACUAUGACACGCAAAACGCGUGCUCCGUUGAAUGGAGUUUAUCAUG: -1.31; GGAUCUUCUCGAUCUAACAAAAAAGACAAAUCUGCCACAAAGCUUGAGAGCAUCUUCGGAUGCAGAGGCGGCAGCCUUCGGUGGCGCGAUAGCACCAACGUUCUCAACUAUGACACGCAAAACGCGGGCUCCGUUGAAUGGAGUUGAUCAUG: -3.33; GGAUCUUCUCGAUCUAACAAAAAAGACAAAUCUGCCACAAAGCUUGAGAGCAUCUUCGGAUGCAGAGGCGGCAGCCUUCGGUGGCGCGAUAGCCCCAACGUUCUCAACUAUGACACGCAUAACGCGUGCUCCGUUGAAUCGAGUUUAUCAUG: at most -4.2. Next, GGAUCUUCUCGAUCUAACAAAAAAGACAAAUCUGCCACAAAGCUUGAGAGCAUCUUCGGAUGCAGAGGCGGCAGCCUUCGGUGGCGCGAUAGCCCCAACGUUCUGAACUAUGACAAGCAAAACGCGUGCUCCGUUGAAUGGAGUUUAUCAUG: -2.89. For GGAUCUUCUCGAUCUAACAAAAAAGACAAAUCUGCCACAAAGCUUGAGAGCAUCUUCGGAUGCAGAGGCGGCAGCCUUCGGUGGCGCGAUAGCUCCAACGUUCUCAACUAUGACACGCAAAACGCGUGCUCCGUUGAAUGGAGUUUGUCAUG, the “polymerase ribozyme fitness (log ratio)” value is -1.51.

As for GGAUCUUCUCGAUCUAACAAAAAAGACAAAUCUGCCACAAAGCUUGAGAGCAUCUUCGGAUGCAGAGGCGGCAGCCUUCGGUGGCGCGAUAGCUCCAACGUUCUCAACUAUGACACGCAAAACGCGUGCUCCGUUGAAUGGAGUUUUUCAUG, the “polymerase ribozyme fitness (log ratio)” value was 0.0631. For GGAUCUUCUCGAUCUAACAAAAAAGACAAAUCUGCCACAAAGCUUGAGAGCAUCUUCGGAUGCAGAGGCGGCAGCCUUCGGUGGCGCGAUAGCCCCAACGUUCUCAACUAUGACUCGCAAAACGCGUGCUCCGUUGAAUGGACUUUAUCAUG the value was at most -4.2; for GGAUCUUCUCGAUCUAACAAAAAAGACAAAUCUGCCACAAAGCUUGAGAGCAUCUUCGGAUGCAGAGGCGGCAGCCUUCGGUGGCGCGAUAGCCCCAACGUUCUCAACGAUCACGCGCAAAACGCGUGCUCCGUUGGAUGGAGUUUAUCAUG, at most -4.2; for GGAUCUUCUCGAUCUAACAAAAAAGACAAAUCUGCCACAAAGCUUGAGAGCAUCUUCGGAUGCAGAGGCGGCAGCCUUCGGUGGCGCGAUAGCACCAACGUUCUCAACUAUGACACCCAAAACGCGUGCUCCGUUGGAUGGAGUUUAUCAUG, -3.09.

Turning to GGAUCUUCUCGAUCUAACAAAAAAGACAAAUCUGCCACAAAGCUUGAGAGCAUCUUCGGAUGCAGAGGCGGCAGCCUUCGGUGGCGCGAUAGCCCCAACGUUCUCAACUAUGACACGCAAAACGCGUGCUCCGUUGAAUGGAGUUUAUCUUG, the “polymerase ribozyme fitness (log ratio)” value worked out at 1.09. Next, GGAUCUUCUCGAUCUAACAAAAAAGACAAAUCUGCCACAAAGCUUGAGAGCAUCUUCGGAUGCAGAGGCGGCAGCCUUCGGUGGCGCGAUAGCACCAACGUUCUCAACUAUGACACGCAAAACGCGUGCUUCGUUGAAUGGAGUUUAUCAUG: 0.309; GGAUCUUCUCGAUCUAACAAAAAAGACAAAUCUGCCACAAAGCUUGAGAGCAUCUUCGGAUGCAGAGGCGGCAGCCUUCGGUGGCGCGAUAGCCCUAACGUUCUCAACUAUGACACGCAAAACGCGUGCUCCGUUAAAUAGAGUUUAUCAUG: at most -4.2; GGAUCUUCUCGAUCUAACAAAAAAGACAAAUCUGCCACAAAGCUUGAGAGCAUCUUCGGAUGCAGAGGCGGCAGCCUUCGGUGGCGCGAUAGCCCCAACGUUCUCAACUAUGACACGCAAAACGCGCGCUCCGUUGAAUGGAGUUUAUCAUG: -2.45. Next, GGAUCUUCUCGAUCUAACAAAAAAGACAAAUCUGCCACAAAGCUUGAGAGCAUCUUCGGAUGCAGAGGCGGCAGCCUUCGGUGGCGCGAUAGCUCCGACGUUCUCAACUAUGACACGCAAAACGCGAGCUCCGUUGAAUGGAGUUUAUCUUG: at most -4.2; GGAUCUUCUCGAUCUAACAAAAAAGACAAAUCUGCCACAAAGCUUGAGAGCAUCUUCGGAUGCAGAGGCGGCAGCCUUCGGUGGCGCGAUAGCACCAACGUUCUCAACUAUGACACGCAAAACGCGUGCUCCGUUGAAUGGAGUUUAUCAAG: at most -4.2.

The values are drawn from the RNAGym collection of RNA variant scans (doi:10.1073/pnas.2313332121).
